This list was built around the results that the source calls inconclusive (neither active nor inactive); the mix of calls is not that of the screen. Potencies of inconclusive entries are left out as doubtful fits. The source made the active and inactive calls. Calls come from the whole dose curve; as a rule, active = well fitted cell-killing curve with a large enough effect; inconclusive = small, poorly fitted or top-dose-only effect; inactive = flat fitted curve, though single readings scatter.
Experiment: Cellular viability qHTS for adrenocortical cancer (ACC) cell line SW-13 (AID 1963989); note: nearly all actives have a fitted effect of over 65% in size;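 for activity (max response): cells grown in serum-free medium with ITS supplement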
Conditions: SW-13 ACC cells viability, CellTiter-Glo, 48 h; activity (max response): stronger effect = lower value
How it was run: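 Compound titrations (up to 46 uM final, in DMSO) were applied to SW-13 cells for 48 h at 37C/5% CO2. Reading used CellTiter-Glo after 20 min at room temperature; fitted curves yielded IC50 and efficacy.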
% is set by controls: 0 for no effect and ±100 for the full control effect; potency is the fitted concentration of half-maximal effect; tags give direction and shape of the fitted curve.

SMILES	activity (max response)	Potency
N#CSCC(=O)O	inactive: 4.51%	–
CC[C@H](C)[C@@H]([C@@H](CC(=O)N1CCC[C@H]1[C@H](OC)[C@@H](C)C(=O)N[C@@H](Cc1ccccc1)c1nccs1)OC)N(C)C(=O)[C@@H](NC(=O)[C@H](C(C)C)N(C)C)C(C)C	inconclusive: -77.3%	–
O=c1[nH]c(=O)c2ccccc2o1	inactive: 6.04%	–
CCCCCCCCCCCCCCCCN	–	inconclusive [cytotoxic, partial curve, poor fit]
COc1ccc(NS(=O)(=O)c2ccc(N)cc2)nn1	–	inconclusive [cytotoxic, partial curve, poor fit]
COc1cc(N2CCN(C)CC2)ccc1Nc1nccc(-c2cn(C)c3cnccc23)n1	inactive: -3.47%	–
CN(C)/C(N)=N/C(=N)N	–	inconclusive [cytotoxic, single point]
Cc1nnc(C[C@@H]2C=C(c3ccc(Cl)cc3)c3ccccc3-n3c(C)nnc32)o1	–	inconclusive [cytotoxic, partial curve]
CCN(Cc1ccncc1)C(=O)C(CO)c1ccccc1 (stereo not drawn)	inactive: -0.134%	–
C[C@@H](Oc1cc(C(=O)Nc2ccc(C(=O)N3CCN(C)CC3)cc2)nnc1N)c1c(Cl)ccc(F)c1Cl	–	active: 17.8 µM
COC1(c2sc3c(N4CCOCC4)nc(-c4cnc(N)nc4)nc3c2C)COC1	–	inconclusive [cytotoxic, full curve]
CONC(=O)c1ccccc1Nc1cc(Nc2cc(C)nn2C(C)C)ncc1Cl	–	inconclusive [cytotoxic, single point]
CN(C)CC[C@@H](c1ccc(Cl)cc1)c1ccccn1	inactive: 7.75%	–
OCCOc1ccc(/C(=C(/CCCl)c2ccccc2)c2ccccc2)cc1	–	inconclusive [cytotoxic, single point]
CN(CCCN1c2ccccc2CCc2ccccc21)CC(=O)c1ccc(Cl)cc1	–	inconclusive [cytotoxic, partial curve, poor fit]
CN1CCN(c2ccc(-c3cccc(CN4CCOCC4)c3)cc2NC(=O)c2c[nH]c(=O)cc2C(F)(F)F)CC1	inactive: -3.17%	–
COc1ccc2[nH]c(S(=O)Cc3ncc(C)c(OC)c3C)nc2c1 (stereo not drawn)	–	inconclusive [cytotoxic, single point]
O=C(NCCCNC(=O)c1ccc[nH]c1=O)c1cc(-c2ccccc2)on1	–	active: 22.4 µM
COc1cc(-c2cc(-c3ccc(N4CCNCC4)cc3)cnc2C)cc(OC)c1OC	–	inconclusive [cytotoxic, partial curve]
C[C@]12CC[C@@H]3c4ccc(O)cc4CC[C@H]3[C@@H]1CC[C@@H]2O	–	inconclusive [cytotoxic, full curve]
C#C[C@]1(OC(C)=O)CC[C@H]2[C@@H]3CCC4=C/C(=N/O)CC[C@@H]4[C@H]3CC[C@@]21CC	–	inconclusive [cytotoxic, single point]
COc1c(Nc2ncc(Cl)c(N[C@H]3[C@H](C(N)=O)[C@@H]4C=C[C@@H]3C4)n2)ccc2c1CCC(N1CCOCC1)CC2 (stereo partly drawn)	–	active: 15.8 µM
CC(C)Oc1ccc(-c2nc(-c3cccc4c3CC[C@@H]4NCCO)no2)cc1C#N	–	inconclusive [cytotoxic, single point]
COc1cc(OC)cc(N(CCNC(C)C)c2ccc3ncc(-c4cnn(C)c4)nc3c2)c1	–	inconclusive [cytotoxic, single point]
Cc1ccc(/C=N/n2c(-c3ccccc3)csc2=S)cc1	inactive: 8.75%	–
Cc1ccc(C(=O)OCc2ccc([C@@H](CN)C(=O)Nc3ccc4cnccc4c3)cc2)c(C)c1	–	inconclusive [cytotoxic, single point]
C[C@@H](O)[C@H]1C(=O)N2C(C(=O)O)=C([C@H]3CCCO3)S[C@H]12	inactive: 12.4%	–
CCOC(=O)n1ccn(C)c1=S	–	inconclusive [cytotoxic, single point]

Source: PubChem BioAssay (NCATS)
